The list shows a part of the results.
Columns and labels:
HSkMC = human skeletal muscle cells; assay: cytotoxicity call (relative viability < 0.9); conditions: 10 µM
HepG2 = assay: cytotoxicity call (relative viability < 0.9); conditions: 10 µM
S. aureus RN4220 = assay: growth inhibition call (relative growth <= 0.2); conditions: 50 µM

| SMILES | cytotoxicity call (HSkMC) | cytotoxicity call (HepG2) | growth inhibition call (S. aureus RN4220) |
| --- | --- | --- | --- |
| COc1ccc(S(=O)(=O)Nc2ccc3c(c2)C(=O)N([C@@H](C)CO)C[C@@H](C)[C@H](CN(C)C(=O)CCC(F)(F)F)OCCCC[C@@H](C)O3)cc1 | inactive | inactive | inactive |
| COc1ccc(NC(=O)N2C[C@H](O)COC[C@H]3O[C@@H](CC(=O)NC4Cc5ccccc5C4)CC[C@@H]32)cc1 | inactive | inactive | inactive |
| Cc1nc(-c2ccncc2)sc1CN | inactive | inactive | inactive |
| O=C(C[C@@H]1CC[C@@H]2[C@H](COC[C@H](O)CN2S(=O)(=O)c2ccccc2)O1)NCCN1CCCC1 | inactive | inactive | inactive |
| CC(C)NC(=O)N(C)C[C@H]1Oc2ccc(NC(=O)NC3CCCCC3)cc2C(=O)N([C@H](C)CO)C[C@H]1C | inactive | inactive | inactive |
| CCCNC(=O)C[C@@H]1CC[C@@H]2[C@@H](COc3ccc(NS(=O)(=O)c4ccccc4C)cc3C(=O)N2C)O1 | inactive | inactive | inactive |
| C[C@@H]1CN([C@H](C)CO)C(=O)c2cc(NS(=O)(=O)c3cn(C)cn3)ccc2O[C@H]1CN(C)C(=O)Nc1ccccc1 | inactive | inactive | inactive |
| COc1ccc(S(=O)(=O)Nc2ccc3c(c2)C(=O)N([C@@H](C)CO)C[C@@H](C)[C@H](CN(C)C(=O)NC2CCCCC2)OCCCC[C@H](C)O3)cc1 | inactive | inactive | inactive |
| COc1cc(Nc2ncc(F)c(Nc3ccc4c(n3)N(COP(=O)(O)O)C(=O)C(C)(C)O4)n2)cc(OC)c1OC | active | active | inactive |
| COc1ccc(S(=O)(=O)Nc2ccc3c(c2)C(=O)N([C@H](C)CO)C[C@@H](C)[C@@H](CN(C)Cc2ccc(C(F)(F)F)cc2)OCCCC[C@@H](C)O3)cc1 | active | active | inactive |
| CCS(=O)(=O)N1C[C@]2(CN(C2)S(=O)(=O)c2cn(cn2)C)c2c([nH]c3cc(ccc23)OC)[C@@H]1CO | inactive | inactive | inactive |
| CC(C)(C)OC(=O)C[C@@H]1CC=CC[C@H](CC(=O)NCCO)C(=O)NCCOC1=O | inactive | inactive | inactive |
| C[C@H]1CN([C@@H](C)CO)C(=O)CCCn2nncc2CO[C@@H]1CN(C)S(C)(=O)=O | inactive | inactive | inactive |
| COc1ccc(CN(C)C[C@@H]2Oc3ccc(NC(=O)CCCN(C)C)cc3C(=O)N([C@H](C)CO)C[C@H]2C)cc1 | inactive | inactive | inactive |
| C[C@H]1CCCCO[C@H](CN(C)Cc2ccncc2)[C@@H](C)CN([C@@H](C)CO)C(=O)c2cc(NS(C)(=O)=O)ccc2O1 | inactive | inactive | inactive |
| Cc1noc(C)c1S(=O)(=O)N(C)C[C@H]1Oc2c(NS(C)(=O)=O)cccc2C(=O)N([C@@H](C)CO)C[C@H]1C | inactive | inactive | inactive |
| C[C@@H]1CN([C@@H](C)CO)C(=O)c2cccc(NC(=O)c3ccc(-c4nccs4)cc3)c2O[C@@H]1CN(C)C(=O)Nc1ccccc1 | inactive | inactive | inactive |
| C[C@H](CO)N1C[C@H](C)[C@H](CN(C)CC2CCCCC2)Oc2ccc(NS(=O)(=O)c3cn(C)cn3)cc2CC1=O | inactive | inactive | inactive |
| NCc1ccccc1Sc1ccccc1CO | inactive | inactive | inactive |
| C[C@H](O)C#Cc1ccc2c(c1)O[C@H](CN(C)C)[C@H](C)CN([C@@H](C)CO)S2(=O)=O | inactive | inactive | inactive |
| C[C@@H]1CN([C@@H](C)CO)C(=O)c2cc(NS(=O)(=O)c3ccccc3)ccc2O[C@@H](C)CCCCO[C@H]1CN(C)Cc1ccccc1 | inactive | inactive | inactive |
| C[C@@H]1CCCCO[C@H](CN(C)C(=O)NC2CCCCC2)[C@H](C)CN([C@@H](C)CO)C(=O)c2cc(NC(=O)Cc3ccccc3)ccc2O1 | inactive | inactive | inactive |
| C[C@@H]1COC(=O)[C@@H](NC(=O)OCC2c3ccccc3-c3ccccc32)CC=CC[C@@H](CC(=O)NCCO)C(=O)N1 | inactive | inactive | inactive |
| C[C@H](CO)N1C[C@H](C)[C@@H](CN(C)S(=O)(=O)c2ccc(Cl)cc2)OCCCC[C@H](C)Oc2ccc(NS(=O)(=O)c3ccc(Cl)cc3)cc2C1=O | inactive | inactive | inactive |
| COc1cc(OC)c2c(=O)c(OC)c(-c3ccccc3)oc2c1 | inactive | inactive | inactive |

Source: the antibiotic and cytotoxicity screens of Wong et al. (2023)
